From the antibiotic and cytotoxicity screens of Wong et al. (2023)
This is one part of the list.

Tested on: HSkMC (human skeletal muscle cells)
Assay: cytotoxicity call (relative viability < 0.9)
Details: 10 µM

| SMILES | cytotoxicity call |
| --- | --- |
| C[C@H]1CN([C@@H](C)CO)C(=O)c2cc(NC(=O)CCC(F)(F)F)ccc2O[C@@H]1CN(C)S(C)(=O)=O | inactive |
| COC[C@@H](O)CSc1[nH]c(C)nc1[N+](=O)[O-] | inactive |
| CN1C(=O)c2cc(NC(=O)c3ccc(F)c(F)c3)ccc2OC[C@H]2O[C@H](CC(=O)N3CCOCC3)CC[C@@H]21 | inactive |
| C[C@@H]1CN([C@H](C)CO)C(=O)c2cc(NC(=O)CCN3CCOCC3)ccc2O[C@H]1CN(C)Cc1ccccc1 | inactive |
| C[C@@H]1CCCCO[C@@H](CN(C)Cc2ccc3c(c2)OCO3)[C@@H](C)CN([C@H](C)CO)C(=O)c2cc(NC(=O)C3CCCCC3)ccc2O1 | inactive |
| COc1ccc(S(=O)(=O)Nc2ccc3c(c2)C(=O)N([C@@H](C)CO)C[C@@H](C)[C@H](CN(C)S(=O)(=O)c2ccc(Cl)cc2)OCCCC[C@@H](C)O3)cc1 | inactive |
| C[C@@H]1CN([C@H](C)CO)C(=O)c2cc(NC(=O)NC3CCCCC3)ccc2O[C@@H](C)CCCCO[C@@H]1CN(C)S(=O)(=O)c1cccs1 | inactive |
| O=C(CN1CCOCC1)NCC[C@@H]1CC[C@H](NC(=O)Cc2ccccn2)[C@H](CO)O1 | inactive |
| CCS(=O)(=O)N1CC[C@]2(CC1)CN([C@H](CO)c1[nH]c3cc(ccc3c12)OC)C(=O)Cc1ccccn1 | inactive |
| C[C@@H]1CN([C@@H](C)CO)C(=O)c2cc(NC(=O)Cn3cnnn3)ccc2O[C@@H]1CN(C)Cc1ccc2c(c1)OCO2 | inactive |
| CNC(=O)Nc1ccc(-c2nc(N3C[C@H]4CC[C@@H](C3)O4)c3cnn(C4CCC5(CC4)OCCO5)c3n2)cc1 | active |
| C[C@H](CO)N1C[C@H](C)[C@H](CN(C)Cc2ccc(-c3ccccc3)cc2)Oc2c(NC(=O)Nc3ccc(C(F)(F)F)cc3)cccc2C1=O | inactive |
| C=CCN1C(=O)[C@]2(O[C@H](CCn3cc(CCO)nn3)[C@@H]([Si](C)(C)c3ccc(OC)cc3)[C@@H]2C)c2cc(N3CCC3=O)ccc21 | inactive |
| COc1ccc(NC(=O)N(C)C[C@H]2Oc3c(NC(=O)C4CCOCC4)cccc3C(=O)N([C@@H](C)CO)C[C@H]2C)cc1 | inactive |
| C[C@@H]1CN([C@@H](C)CO)C(=O)c2cccc(NC(=O)Nc3ccccc3)c2O[C@@H]1CN(C)Cc1ccc(-c2ccccc2)cc1 | active |
| CC(=O)N[C@H]1C/C=C/C[C@@H](CC(=O)NCc2ccc(Cl)cc2)C(=O)NC[C@@H](c2ccccc2)OC1=O | inactive |

| SMILES | cytotoxicity call |
| --- | --- |
| C[C@@H]1CN([C@@H](C)CO)C(=O)Cc2cc(NC(=O)Cn3cnnn3)ccc2O[C@H]1CN(C)Cc1ccc(Oc2ccccc2)cc1 | inactive |
| CC(C)NC(=O)N(C)C[C@@H]1Oc2ccc(NS(=O)(=O)c3ccc(Cl)cc3)cc2C(=O)N([C@H](C)CO)C[C@@H]1C | inactive |
| C[C@H](CO)N1C[C@H](C)[C@@H](CN(C)S(=O)(=O)c2cccs2)Oc2c(NS(C)(=O)=O)cccc2C1=O | inactive |
| C[C@@H](N)c1cnn(-c2ccc(F)cc2)c1 | inactive |
| CCOC(=O)c1cc2c(c(-c3cccc(-c4cccc(OC)c4)c3)n1)[C@H](CCO)N(S(=O)C(C)(C)C)C2 (stereo partly specified) | inactive |
| COC(=O)Nc1nc2ccc(Sc3ccccc3)cc2[nH]1 | inactive |
| Cc1noc(C)c1NC(=O)N(C)C[C@@H]1OCCCC[C@H](C)Oc2ccc(NC(=O)NC3CCCCC3)cc2C(=O)N([C@@H](C)CO)C[C@H]1C | inactive |
| CC(=O)N[C@H](CC(C)C)C(=O)O | inactive |
| Cc1ccc(S(=O)(=O)N(C)C[C@H]2Oc3c(NS(=O)(=O)c4ccc(F)cc4)cccc3C(=O)N([C@@H](C)CO)C[C@@H]2C)cc1 | inactive |
| Cc1noc(C)c1S(=O)(=O)Nc1ccc2c(c1)CC(=O)N([C@H](C)CO)C[C@@H](C)[C@@H](CN(C)S(C)(=O)=O)O2 | inactive |
| CN(C)CC(=O)N[C@@H]1CC[C@@H](CCNC(=O)C2CCC2)O[C@@H]1CO | inactive |
| Cc1noc(C)c1NC(=O)Nc1ccc2c(c1)CC(=O)N([C@@H](C)CO)C[C@H](C)[C@@H](CN(C)Cc1ccc(Oc3ccccc3)cc1)O2 | inactive |
| Cc1ccc2c(c1)[C@](C)(O)CCS2 | inactive |
| C[C@@H]1O[C@@H](O[C@@H]2[C@@H](O)[C@H](O)[C@@H](CO)O[C@H]2c2c(O)cc3oc(-c4ccc(O)cc4)cc(=O)c3c2O)[C@H](O)[C@H](O)[C@H]1O | inactive |
| C[C@@H]1CCCCO[C@H](CN(C)CC2CC2)[C@H](C)CN([C@H](C)CO)C(=O)c2cc(NC(=O)NC3CCCCC3)ccc2O1 | inactive |
